Source: PubChem BioAssay AID1346428 (National Center for Advancing Translational Sciences (NCATS), 2018)
The whole screen tested about 48,000 compounds, of which about 1,200 (2.5%) were called active. Roughly 2% stayed inconclusive and do not appear here.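 Rule for the calls: active = activation of at least 60% and not above a set upper limit (about 1 call in 100 departs from these limits); inconclusive = activation of 40% to 60%, or above that upper limit; inactive = activation under 40%.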 The list shows a part of the results.

Each compound was assayed against Probable G-protein coupled receptor 32 (Homo sapiens) (UniProt O75388) (assay: qHTS for Agonists of Human Resolvin D1 Receptor DRV1). Conditions: CHO-K1 GPR32 beta-arrestin PathHunter luminescence, 90 min; at 76.9 µM; hits give high values; zero percent set by DMSO-only wells.
Summary of the method: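 Using DMSO wells as EC0, agonist-induced signal was taken as chemiluminescence from beta-Gal reconstituted upon beta-arrestin recruitment to GPR32 in CHO-K1 cells after 90 min compound treatment.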
Note: 0% is about no effect.

Sequence of UniProt O75388 (O75388 whole entry, looked up): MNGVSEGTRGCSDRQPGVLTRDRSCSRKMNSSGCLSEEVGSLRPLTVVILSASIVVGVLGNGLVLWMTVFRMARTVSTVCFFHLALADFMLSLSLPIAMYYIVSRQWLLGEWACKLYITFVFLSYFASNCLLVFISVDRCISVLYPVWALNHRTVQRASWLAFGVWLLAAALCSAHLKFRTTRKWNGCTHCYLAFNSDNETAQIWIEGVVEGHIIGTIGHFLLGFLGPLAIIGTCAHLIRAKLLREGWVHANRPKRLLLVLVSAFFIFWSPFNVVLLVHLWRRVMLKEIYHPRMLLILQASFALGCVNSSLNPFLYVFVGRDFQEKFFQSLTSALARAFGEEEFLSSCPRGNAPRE

activation, inactive:
Cc1ccc(-c2nnc(Nc3ccc(S(N)(=O)=O)cc3)c3ccccc23)cc1S(=O)(=O)N1CCOCC1 21.4%
CCc1ccccc1NC(=O)C(=O)NCC(c1cccnc1)N1CCc2ccccc21 (stereo not given) -26.5%
CN(C(=O)CSc1nc2ccc(NC(=O)CCc3ccccc3)cc2s1)c1ccccc1 -32.8%
Cc1ccc(C)c(Cn2c(SCC(=O)N(C)Cc3ccccc3)nc3ccccc32)c1 -42.6%
Cc1ccc(C)c(N2CCN(C(=O)CCCCCn3c(=O)[nH]c4ccccc4c3=O)CC2)c1 -17%
COc1ccc2c(c1)Cc1sc(NC(=O)c3cccc(F)c3)nc1-2 -40.2%
CC(NC(=O)c1cccc(NC(=O)c2nsc3ccccc23)c1)c1ccccc1 (stereo not given) -18%
CCCC(=O)Nc1cc(-c2nc3cccnc3s2)ccc1C -16.8%
Cc1ccc(NC(=O)NCC2CCN(Cc3cccc(Cl)c3)CC2)cc1Cl -12.8%
CCc1cccc(NC(c2nnc(-c3ccccc3)o2)c2ccc(F)cc2Cl)c1 (stereo not given) -46.7%
COc1ccc(C(=O)Nc2ccc3oc(-c4ccc(OC)cc4)nc3c2)cc1 8.19%
CCOC(=O)c1ccc(NC(=O)C2CC(=O)N(c3ccc(C(C)C)cc3)C2)cc1 (stereo not given) 24%
CCOc1ccc(C(=O)c2cn(Cc3ccc(OC)cc3)c3cc(OC)c(OC)cc3c2=O)cc1 20.6%
Cc1ccc(C(=O)CSc2nnc(-c3ccccc3)n2-c2ccccc2)cc1 -0.2%
COc1cccc(-n2c(-c3ccco3)nc3c(cnn3-c3ccc(C)cc3)c2=O)c1 -27.3%
CCN1c2ccccc2-c2nc(SCC(=O)Nc3c(C)cc(C)cc3C)ncc2S1(=O)=O -17.5%
Cc1cccc(NC(=O)CCNS(=O)(=O)c2cccc3nonc23)c1 -22.1%
CC(=O)Nc1ccc(S(=O)(=O)NC2(C(F)(F)F)C(=O)Nc3c2c(=O)[nH]c(=O)n3-c2ccc(C)c(C)c2)cc1 (stereo not given) -8.31%
Cc1ccc2cccc(NC(=O)C(C)Oc3ccc(C)c(C)c3)c2n1 (stereo not given) -2.89%
CC1=C(C(=O)NCc2ccc(C)cc2)C2(CCCCC2)OC1=O -15.9%
Cc1ccc(Nc2c(F)cccc2Cl)c(CC(=O)O)c1 31%
CCOc1ccc(NC(=O)CSc2ncc3c(n2)-c2cc(Cl)ccc2N(C)S3(=O)=O)cc1 -2.42%
O=C(Nc1cc(Cl)ccc1Cl)C1(c2cccs2)CCOCC1 -4.35%
Cc1noc(Cn2c(=O)c3ccccc3n(CC(=O)Nc3ccc(Cl)cc3)c2=O)n1 -2.49%
Cc1cc(=O)n2c(C(=O)Nc3ccc(Br)cc3)c(C(=O)Nc3ccccc3)sc2n1 -11.5%
COc1ccccc1OCc1nnc(-c2ccccc2)o1 -4.77%
CCCCOC(=O)c1ccc(OC(=O)c2sc3ncn(Cc4ccccc4Cl)c(=O)c3c2C)cc1 -9.3%
Cc1ccc(Cl)cc1Nc1sc(C(=O)c2ccc(F)cc2)c(N)c1S(C)(=O)=O -31.7%
COc1cccc(CNC(=O)Cc2csc3nc(-c4ccccc4)cn23)c1 -4.88%
CCOc1ccc(CNCCCSc2nnnn2C)cc1OC 3.97%
O=C(CSc1nc(=O)n(Cc2ccco2)c2c1CCC2)Nc1cccc(F)c1 -2.68%
CCOc1ccc(NC(=O)Cn2cc(C(=O)c3ccc(OC)cc3)c(=O)c3cc4c(cc32)OCO4)cc1 1.96%
Cc1ccccc1Nc1c(-c2ccc(Br)cc2O)nc2sccn12 -2.01%
O=C(Nc1ccc(Cl)c(-c2nc3ccccc3o2)c1)c1ccc(-c2cccc([N+](=O)[O-])c2)o1 -3.01%
COc1ccccc1N1CCN(C(c2ccc(Cl)cc2)c2nnc(-c3cccc(F)c3)o2)CC1 (stereo not given) -22.5%
CCCSc1oc(-c2ccco2)nc1S(=O)(=O)c1ccc(Cl)cc1 -33.6%
COc1ccccc1CNC(=O)c1cnc(N(C)C)nc1 -13.5%
COc1ccc(CC(=O)Nc2sc3c(c2C(=O)Nc2cccc(C)c2)CCCCC3)cc1 -1.89%
CCCCN(CC)CCCNC(=O)CN1C(=O)CSc2ccc(S(=O)(=O)N3CCOCC3)cc21 -13.8%
CCOC(=O)c1cc(-c2ccc(OC)c(S(=O)(=O)NC3CCCCC3)c2)on1 -19.5%
COc1ccccc1N(CC(=O)N1CCC(C)CC1)S(=O)(=O)c1ccc(C)cc1 -13.2%
c1ccc2sc(SSc3nc4ccccc4s3)nc2c1 41%
COc1ccc(CCNC(=O)CN2C(=O)COc3ccc(C)cc32)cc1OC 13%
CCN(C(=O)Cn1nc(Cc2ccncc2)c2ccccc2c1=O)c1cccc(Cl)c1 -14.7%
Cc1cccc(Nc2nn3c(=O)c4cc5c(cc4nc3s2)OCO5)c1 23.8%
CCc1ccc(Cn2c(CNS(=O)(=O)c3ccc([N+](=O)[O-])cc3)nc3cccnc32)cc1 -21.5%
COCCCNC(=O)c1c(-c2ccccc2)c(-c2ccccc2)nn(C)c1=O -14.9%
COc1cc(NC(=O)c2nn(C)c3c2CS(=O)(=O)c2ccccc2-3)cc(OC)c1 3.81%
CCn1nc(C)c(CCN(C)C(=O)Nc2ccc(C)c(Cl)c2)c1C 27%
COCCNC(=O)c1ccc(-n2c(-c3ccccc3)cc3c2CCC(C)C3)cc1 (stereo not given) -31.9%
Cc1ccc(C(=O)NCc2ccc3c(c2)CCN3C(=O)c2ccc(C)cc2)cc1 -31.5%
Cc1cc(Nc2cccc(Cl)c2)nc2ccc(NC(=O)Cc3ccc(Cl)cc3)cc12 -5.52%
CCN(CC)CCNC(=O)CN1C(=O)COc2ccc(S(=O)(=O)N3CCOCC3)cc21 5.7%
CCOC(=O)Cn1c(=O)n(CC2CCCO2)c2nc(-c3ccc(OCC)cc3)nc(C(N)=O)c21 (stereo not given) -0.694%
COc1ccc(NC(=O)c2sc3nc4c(cc3c2N)CCCCCC4)c(OC)c1 3.22%
COc1cc(N2C(=O)CSC23C(=O)N(Cc2cccc(F)c2)c2ccccc23)cc(OC)c1OC (stereo not given) 9.86%
COc1ccccc1Nc1c2c(nc3ccc(NC(=O)c4ccc(OC)c(OC)c4)cc13)CCCC2 6.82%
COc1ccc(CCNC(=O)c2ccc3c(c2)CCN3S(=O)(=O)c2ccccc2)cc1OC -1.66%
CCOc1ccccc1NC(=O)Cn1c(=O)n(Cc2ccccc2)c(=O)c2c1c1cc(C)ccc1n2C -6.74%
Cc1ccc(-n2ncc(C(=O)NCc3ccccc3)c2C2CCN(C(=O)OC(C)(C)C)CC2)cc1 -14.3%
O=C(Nc1ccc2nc(SCCOc3ccccc3Cl)sc2c1)c1ccco1 7.2%
CCc1cccc(NC(=O)CSc2n[nH]c(-c3ccccc3Cl)n2)c1 45.7%
COc1cccc(-c2nn(C)c3sc(C(=O)NCCc4cccc(C)c4)cc23)c1 -11.8%
COc1ccc(C)cc1NC(=O)c1c(C(=O)Nc2cccc(C)c2C)sc2nc(C)cc(=O)n12 -3.38%
Cc1nnc(N2CCN(c3cccc(Cl)c3)CC2)c2c1nnn2Cc1ccc(F)cc1 -6.04%
CCCNC(=O)Cn1ncc2c3ccccc3n(CCC)c2c1=O -6.88%
Cn1c(NCCN(CCO)CCCc2ccc([N+](=O)[O-])cc2)cc(=O)n(C)c1=O 10%
CCOc1ccc(OCC)c(NC(=O)c2cnn(-c3ccc(F)cc3)c2C2CCN(C(=O)OC(C)(C)C)CC2)c1 -11.4%
CCOC(=O)C1CCCN(C(=O)Cn2ncc3c(C)n(Cc4ccc(F)cc4)c(C)c3c2=O)C1 (stereo not given) 8.88%
CCOc1ccc(-n2c(C)nc3cc(C(=O)NCc4ccc(C)cc4)ccc32)cc1 -24.4%
CCOc1ccc2c(c1)c(=O)c(C(=O)c1ccc3c(c1)OCO3)cn2Cc1cccc(F)c1 -20.1%
COc1ccc(-n2ccnc(NCc3cccs3)c2=O)cc1 42%
COC(=O)Nc1nc2ccc(C(=O)c3ccccc3)cc2[nH]1 0.501%
COc1ccc(-c2ccc(-c3noc(-c4cc(OC)cc(OC)c4)n3)c(OC)n2)cc1 0.104%
CCOc1ccc(-c2nnc(SCC(=O)Oc3ccccc3)o2)cc1 -2.29%
CCn1c(=O)cc(SCC(=O)Nc2cc(Cl)ccc2OC)c2ccccc21 -28%
O=c1c2c3c(sc2nnn1Cc1ccc(F)cc1)CCCC3 -19.4%
CC1CCCN(c2nc(-c3ccccc3O)nc3ccccc23)C1 (stereo not given) -0.659%
CC1CCn2c(nc3cc(C(=O)NCCc4ccccc4)ccc32)C1 (stereo not given) 0.478%
CCOc1ccc(C(=O)Nc2nc(-c3ccc(Br)cc3)ns2)cc1 0.378%
COc1cccc(N2CCN(C(=O)c3cc4c(=O)n(Cc5cccnc5)ccc4nc3C)CC2)c1 -10.2%
COc1ccc(NC(=O)Cn2c(SCc3ccc(F)cc3)nc3cccnc32)c(OC)c1 0.841%
Cc1ccc2c(=O)cc(C(=O)Nc3ccc(S(=O)(=O)N4CCCCC4)cc3)oc2c1 -1.25%
COC(=O)C(NC(=O)CCc1c(C)nc2cc(-c3cccc(F)c3)nn2c1C)C(C)C (stereo not given) 41.3%
COC(=O)c1ccccc1NC(=O)CCC(=O)N1CC(C)Sc2ccccc21 (stereo not given) -23.9%
